{"source": "the supplement of paper PMC11417369", "note": "± gives the standard deviation of the averaged measurements. The list shows a part of the results."}
{"tested_on": "PfAP2-LT AP2 domain (GST-tagged)", "experiment": "gcPBM binding intensity (ln(normalized median fluorescence intensity)); higher = stronger DNA binding", "how_it_was_run": "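An Agilent 4 × 180k array carrying primer-extended double-stranded 36-bp intergenic genomic probes and negative controls received GST-tagged P. falciparum DNA-binding domains expressed in E. coli, about 25 μg on average, for 1 h. The binding buffer contained 1× PBS, 1% milk, 0.2 mg/ml BSA, 0.5% salmon testes DNA and 0.03% Triton X-100. Binding intensity is the top Masliner-normalised natural-log median intensity across replicate spots of either probe orientation, read after Alexa488 anti-GST antibody staining and a 488 nm scan.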"}
{"sequence": "ATACCATAAATATTGTGTACATAAATATGTTAGTAA [XGTACX_site6077]", "gcPBM binding intensity (ln)": "8.84 ± 0.42"}
{"sequence": "CACGTATATATATATACACACACATATATATATGTA [CACACA_site7948]", "gcPBM binding intensity (ln)": "9.32 ± 0.26"}
{"sequence": "CATGTTTATGCCGTTTGTACATATATATCTAAAAAA [XGTACX_site4336]", "gcPBM binding intensity (ln)": "8.53 ± 0.28"}
{"sequence": "GAGAAAAGGAAATTCACACATATAAAGAAAGATCTA [CACACA_site5420]", "gcPBM binding intensity (ln)": "8.71 ± 0.51"}
{"sequence": "ATTGATACATCCAATACACACTACATATAATGATGT [CACACA_site8561]", "gcPBM binding intensity (ln)": "9.11 ± 0.34"}
{"sequence": "GTATGTATGTATATATGTACACATTATTATTTAATG [XGTACX_site5802]", "gcPBM binding intensity (ln)": "8.88 ± 0.42"}
{"sequence": "ATATTAATAATATATGCATGCATTAACATATTGAAA [TGCATGCA_site951]", "gcPBM binding intensity (ln)": "8.88 ± 0.28"}
{"sequence": "TTTTTTATATATACATATATATAAATATATATAACT [GTGCAC_negctrl_site385]", "gcPBM binding intensity (ln)": "8.45 ± 0.45"}
{"sequence": "TATGGAGAAATAAATAGTACGTATTTTATTTAAAAA [XGTACX_site3129]", "gcPBM binding intensity (ln)": "8.61 ± 0.47"}
{"sequence": "AAAAATATAAAAATAGCACACATATATACATATATA [CACACA_site7901]", "gcPBM binding intensity (ln)": "8.96 ± 0.45"}
{"sequence": "TTTCCTAGCACATGCACACAAAAAAAAAAAAAAAAA [CACACA_site1404]", "gcPBM binding intensity (ln)": "8.82 ± 0.45"}
{"sequence": "TATAAAAATATTGAAAGTACTTATTAAAATATTATT [XGTACX_site3701]", "gcPBM binding intensity (ln)": "8.46 ± 0.46"}
{"sequence": "ATGTTCGATGATAAATGTACAAAAATAATGGAAGTA [XGTACX_site1916]", "gcPBM binding intensity (ln)": "8.99 ± 0.36"}
{"sequence": "CTTGCAAAAAGTATATGTACATATATATATATATAT [XGTACX_site5792]", "gcPBM binding intensity (ln)": "9.74 ± 0.042"}
{"sequence": "ATTTTAGGAAAAAAAAGTACATATAATTTTTTATAT [XGTACX_site6954]", "gcPBM binding intensity (ln)": "8.26 ± 0.47"}
{"sequence": "TGTTTGCTTATGTGTTAAATATATATATATATATAT [TGCATGCA_negctrl_site218]", "gcPBM binding intensity (ln)": "9.25 ± 0.34"}
{"sequence": "CGAACACAAACACAAACACACATCAGATATAAATAT [CACACA_site6736]", "gcPBM binding intensity (ln)": "9.34 ± 0.43"}
{"sequence": "TTTTTTTTGATATATACACACAATAAATAAATATAA [CACACA_site7400]", "gcPBM binding intensity (ln)": "8.45 ± 0.41"}
{"sequence": "ATTTATTATTATATCACACATAATATATTAAATGAT [CACACA_site5821]", "gcPBM binding intensity (ln)": "8.64 ± 0.37"}
{"sequence": "TATATTTCTTCTATAACATGCAGATATATGAAAATA [TGCATGCA_site971]", "gcPBM binding intensity (ln)": "8.3 ± 0.36"}
{"sequence": "TATAAATAGAGACACACACACATATAAATAAATATT [CACACA_site7854]", "gcPBM binding intensity (ln)": "9.68 ± 0.28"}
{"sequence": "ATATATTTTTTGAATACACACATATTATCTGTAATA [CACACA_site4826]", "gcPBM binding intensity (ln)": "8.95 ± 0.36"}
{"sequence": "CTATAATATGGTATTACACACTGTTATAAGTATGGC [CACACA_site7068]", "gcPBM binding intensity (ln)": "8.95 ± 0.36"}
{"sequence": "AGAATTATTTTATGTTTGCACTTTTTTTTTCTATAA [GTGCAC_site9876]", "gcPBM binding intensity (ln)": "8.84 ± 0.53"}
{"sequence": "ATTATTAACATATATATACACACGAAAAAATTATAT [CACACA_site625]", "gcPBM binding intensity (ln)": "8.96 ± 0.35"}
{"sequence": "TAATGAAATATTATGTGTACTTAAAAATTATTAAAT [XGTACX_site5261]", "gcPBM binding intensity (ln)": "8.41 ± 0.41"}
{"sequence": "TATTCCTAATTGACAACACACACAACAAAAAAGGGA [CACACA_site8350]", "gcPBM binding intensity (ln)": "9.37 ± 0.31"}
{"sequence": "TTACACAAATAGCTGCATTTATAAAATACAATTAAA [CACACA_negctrl_site241]", "gcPBM binding intensity (ln)": "8.56 ± 0.41"}
{"sequence": "TGGGCGTCATAATGAACACACAATTATATTATGACT [CACACA_site3910]", "gcPBM binding intensity (ln)": "8.91 ± 0.38"}
{"sequence": "ATATATATAATAATATGTACGGAAAAAGCTTAAGCT [XGTACX_site5661]", "gcPBM binding intensity (ln)": "8.82 ± 0.42"}
{"sequence": "ATATATATATATTTATGTACGAATATGTTTAATTTA [XGTACX_site3986]", "gcPBM binding intensity (ln)": "8.74 ± 0.35"}
{"sequence": "TTTTGTCAATTTTAGATTTTTCAATACATGGATATT [CACACA_negctrl_site319]", "gcPBM binding intensity (ln)": "8.59 ± 0.55"}
{"sequence": "AAATATATATATTTACGTACATATATACAAATAGAG [XGTACX_site6067]", "gcPBM binding intensity (ln)": "8.84 ± 0.39"}
{"sequence": "TTATAAAGAACACAGACACACAAAGAAAGAACCAAT [CACACA_site4175]", "gcPBM binding intensity (ln)": "9.36 ± 0.43"}
{"sequence": "CACAAATAAATACATACACACATATATACTCATATA [CACACA_site4379]", "gcPBM binding intensity (ln)": "9.28 ± 0.33"}
{"sequence": "TGTCACTACAAATGAGTGCATTAAATAATTTGGAAA", "gcPBM binding intensity (ln)": "8.6 ± 0.45"}
{"sequence": "AATATTATTTATATTTGTACACAGTAATATAAAATA [XGTACX_site4884]", "gcPBM binding intensity (ln)": "8.48 ± 0.34"}
{"sequence": "ATATGCAAAGAGTATAATCAAAATGTAAATAAATAA [GTGCAC_negctrl_site141]", "gcPBM binding intensity (ln)": "8.95 ± 0.45"}
{"sequence": "CCATAGATATTTTATACACACATATAATATATTAAG [CACACA_site4363]", "gcPBM binding intensity (ln)": "8.89 ± 0.36"}
{"sequence": "AATATATTCCACATGTGTACATATATATATATATAT [XGTACX_site8006]", "gcPBM binding intensity (ln)": "9.68 ± 0.34"}
{"sequence": "AAAAATAAAGAAACAGGTACGCATATATTAAGATAT [XGTACX_site8097]", "gcPBM binding intensity (ln)": "9.06 ± 0.41"}
{"sequence": "TTTCCTTCTACAAAAAATTTTATCAAGAGGAAGTAC [CACACA_negctrl_site926]", "gcPBM binding intensity (ln)": "8.29 ± 0.38"}
{"sequence": "AATATATATCATCACACACACATACATAAATATATA [CACACA_site184]", "gcPBM binding intensity (ln)": "9.7 ± 0.3"}
{"sequence": "AGTTTATTTGTAAAAAGTACATATTTAAGAAAACTT [XGTACX_site2318]", "gcPBM binding intensity (ln)": "8.51 ± 0.36"}
